Experimental data published in the supplement of paper PMC3334620.
The full ranking holds about 33,000 sequences; the median of “E-score (-0.5 to 0.5)” is about -0.016, and the highest 2% start at about 0.32. This is one part of the list.

Each sequence was assayed against T1, Stp1 (UniProt B3LFK1) (assay: PBM E-score (8-mer binding enrichment) (E-score (-0.5 to 0.5)); higher = stronger / more preferred TF binding; most listed sequences are background and not binding sites). Settings: protein concentration: 200 nM; construct: GST-full length.
T1 sequence: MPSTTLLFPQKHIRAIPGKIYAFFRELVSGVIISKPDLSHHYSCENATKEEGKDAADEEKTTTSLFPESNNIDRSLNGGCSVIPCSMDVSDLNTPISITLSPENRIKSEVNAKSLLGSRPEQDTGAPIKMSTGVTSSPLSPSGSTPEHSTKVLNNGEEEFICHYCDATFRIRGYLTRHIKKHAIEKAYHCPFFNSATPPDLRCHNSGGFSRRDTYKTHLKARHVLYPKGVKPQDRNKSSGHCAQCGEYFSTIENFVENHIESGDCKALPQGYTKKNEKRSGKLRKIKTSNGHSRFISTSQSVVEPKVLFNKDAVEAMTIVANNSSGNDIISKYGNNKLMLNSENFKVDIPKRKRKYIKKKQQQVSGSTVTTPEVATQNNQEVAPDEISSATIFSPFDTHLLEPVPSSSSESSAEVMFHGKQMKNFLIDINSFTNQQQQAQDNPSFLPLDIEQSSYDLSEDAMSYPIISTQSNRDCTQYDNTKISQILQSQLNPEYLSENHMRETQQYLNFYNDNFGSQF
Method: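 Universal 'all 10-mer' protein binding microarrays (Agilent AMADID 015681) probed with GST-tagged S. cerevisiae TFs (full-length or DBD) made by in vitro transcription/translation (PURExpress), about 100-200 nM. Bound TF was detected with fluorescent anti-GST. Each ungapped 8-mer (which stands for itself and its reverse complement) is scored by the PBM enrichment score (E-score), a modified Wilcoxon-Mann-Whitney statistic from -0.5 to +0.5, computed with the Universal PBM Analysis Suite. Scale: above 0.35 generally sequence-specific binding.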

Row | Sequence | PBM E-score
1 | CTTTTCAA | 0.105
2 | ATTCAGCA | -0.143
3 | ACCGCGTA | 0.051
4 | AGCGCACT | -0.267
5 | ACCATCGG | -0.256
6 | AACGATCT | -0.0536
7 | GCTACTCA | -0.1
8 | ATACAGGA | 0.0874
9 | CCAACGGA | 0.063
10 | CCGGTCAC | -0.157
11 | AGAAACTC | -0.0229
12 | CTCAACTC | -0.205
13 | AGAAACAT | 0.0325
14 | GCATAGAC | -0.0398
15 | GCACGAGC | 0.0963
16 | ACGTTCGG | -0.0338
17 | GCTCCGCC | 0.088
18 | AGTCTACC | -0.237
19 | ACTGTTAG | -0.0658
20 | AGGGACCA | -0.242
21 | AGCGCGCC | 0.196
22 | GCGTACTA | -0.0007

Row | Sequence | PBM E-score
23 | AAGACGAT | 0.079
24 | ATGAGCAA | 0.0309
25 | ACAAGTGA | 0.0241
26 | CGAAGTGA | 0.00778
27 | AGGACAGC | -0.0847
28 | GACACCCC | -0.326
29 | CACTAACC | -0.0137
30 | CATATGGG | -0.035
31 | CGATGAAA | 0.13
32 | CAAATCAC | -0.184
33 | AGATGCCT | 0.107
34 | AGTAAACG | -0.0409
35 | ACATCGTC | -0.138
36 | CATTGTCC | -0.117
37 | CGTAACCC | 0.0311
38 | AATACTTC | -0.00056
39 | GCCGTCCC | 0.378
40 | CCGATTAA | 0.159
41 | GCGCCAAA | 0.138
42 | GTCGCACA | -0.0841
43 | GCCTCCGC | 0.173
44 | CCTCGGAC | -0.148

Row | Sequence | PBM E-score
45 | ACTCGACG | 0.00711
46 | CTCTTTGC | -0.105
47 | AACAGTTC | -0.0265
48 | GTTAACAA | 0.0564
49 | GAGAGGTA | -0.247
50 | CAACTTTC | -0.0498
51 | ACCTCTAC | -0.149
52 | GGACCCCA | -0.298
53 | CGGTGCAG | -0.0834
54 | ATAGGCTA | -0.109
55 | CCTAATTC | -0.148
56 | TGCAGGAA | -0.0691
57 | AAAAACCG | 0.0686
58 | GTAGATTA | 0.113
59 | CTAGACAC | -0.122
60 | AATTTCGA | -0.0526
61 | ATAGGAGC | 0.0649
62 | GAAGAGAA | 0.0055
63 | AAGACGGA | -0.0847
64 | CTCGACCC | -0.262
65 | TATCTGAA | 0.109
66 | TCGCCCCA | -0.0443

Row | Sequence | PBM E-score
67 | AACTACGA | 0.0844
68 | GCTCCTTA | -0.0842
69 | CACTAGGA | -0.161
70 | TATTGGCA | 0.0367
71 | AAGCACTA | -0.0436
72 | CTATTATA | 0.0632
73 | ATGTTAGA | 0.0351
74 | CCCGAGCC | 0.0223
75 | CTAACACA | 0.124
76 | GGAGCGCC | -0.0511
77 | CCTCCGAC | -0.252
78 | CCACTACC | -0.209
79 | CCAGTCCA | -0.26
80 | CCCAAATC | -0.0904
81 | CATCTGTC | -0.316
82 | AACAGGAA | -0.00789
83 | AGACTGCA | -0.217
84 | AGCAGGTC | -0.104
85 | AGCTGCAG | 0.017
86 | CCTAAAGG | 0.0566
